Consider 54 molecules from article PMC4336329 (PLoS ONE, 2015).

The structures appear in SMILES notation. Screen size: about 310,000 compounds; about 2,200 (0.71%) showed an effect of 50% or more. The effect is printed as a negative number. The list shows a part of the results.

In this test the target is human ether-à-go-go-related gene (hERG) potassium channel (human, UniProt Q12809). As to the kind of experiment: primary screen, population patch clamp on CHO cells stably expressing hERG.
Sequence of human ether-à-go-go-related gene (hERG) potassium channel (Q12809 whole entry, looked up): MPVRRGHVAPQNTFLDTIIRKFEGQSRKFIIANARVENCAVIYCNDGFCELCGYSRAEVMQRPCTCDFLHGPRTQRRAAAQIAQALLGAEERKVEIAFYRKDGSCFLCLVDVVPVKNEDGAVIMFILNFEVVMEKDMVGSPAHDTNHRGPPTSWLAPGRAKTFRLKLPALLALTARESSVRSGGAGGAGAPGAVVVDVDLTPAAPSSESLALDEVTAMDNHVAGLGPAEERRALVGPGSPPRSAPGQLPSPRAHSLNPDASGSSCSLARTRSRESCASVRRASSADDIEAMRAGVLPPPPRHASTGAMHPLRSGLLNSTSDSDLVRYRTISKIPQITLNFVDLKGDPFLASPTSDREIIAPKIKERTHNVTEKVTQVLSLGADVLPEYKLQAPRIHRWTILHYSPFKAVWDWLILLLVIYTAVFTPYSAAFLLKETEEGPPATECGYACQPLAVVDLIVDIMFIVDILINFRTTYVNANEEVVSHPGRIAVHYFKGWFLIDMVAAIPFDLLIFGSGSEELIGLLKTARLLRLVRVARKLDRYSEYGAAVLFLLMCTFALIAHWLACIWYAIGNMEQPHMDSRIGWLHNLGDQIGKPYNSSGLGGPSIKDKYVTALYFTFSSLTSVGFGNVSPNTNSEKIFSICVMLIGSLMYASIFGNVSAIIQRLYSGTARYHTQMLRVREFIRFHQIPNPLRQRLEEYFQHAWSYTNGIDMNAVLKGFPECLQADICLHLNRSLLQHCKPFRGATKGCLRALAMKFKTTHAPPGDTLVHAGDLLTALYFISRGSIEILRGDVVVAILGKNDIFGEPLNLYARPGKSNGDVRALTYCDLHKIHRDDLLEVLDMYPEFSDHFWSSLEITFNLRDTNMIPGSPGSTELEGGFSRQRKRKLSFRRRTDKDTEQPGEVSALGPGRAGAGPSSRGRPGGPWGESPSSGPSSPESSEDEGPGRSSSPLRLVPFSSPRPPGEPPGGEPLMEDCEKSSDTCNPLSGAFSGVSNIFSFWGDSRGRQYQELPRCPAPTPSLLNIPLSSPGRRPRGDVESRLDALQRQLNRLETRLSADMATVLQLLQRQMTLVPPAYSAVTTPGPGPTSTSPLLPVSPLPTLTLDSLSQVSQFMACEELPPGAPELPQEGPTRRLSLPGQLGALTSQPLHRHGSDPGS
For the molecule `O=C(c1cccc2c1-c1ccccc1/C2=N/O)N1CCCCC1`, the “hERG current change (%, negative = inhibition) at 1uM” value was -2%.
In the case of `CC1CCCN(C(=O)c2ccc3c(=O)n(Cc4ccc5c(c4)OCO5)c(=S)[nH]c3c2)C1` (stereo not drawn), the “hERG current change (%, negative = inhibition) at 1uM” value came to 4.88%.
As for `CC1CC(NC(=O)c2cc3c(=O)n4ccccc4nc3n2C)CC(C)(C)C1` (stereo not drawn), the “hERG current change (%, negative = inhibition) at 1uM” value is 12%.
In the case of `O=C(CN(Cc1ccc(F)cc1)C(=O)CNS(=O)(=O)c1ccccc1)NCC1CCCO1` (stereo not drawn), the “hERG current change (%, negative = inhibition) at 1uM” value is on record as 13.2%.
As for `COC(=O)[C@@H]1CC(O)CN1C(=O)C12CC3CC(CC(C3)C1)C2` (stereo partly drawn), the figure is 8.03%.
Turning to `O=C(NC1CCCCC1)c1ccccc1NC(=S)NC(=O)C1CC1`, the “hERG current change (%, negative = inhibition) at 1uM” value is 18%.
`COc1ccc(OCC(=O)Nc2ccccc2O)cc1`: the “hERG current change (%, negative = inhibition) at 1uM” value is reported as -9.12%.
Consider `CCOC(=O)N1CCN(S(=O)(=O)CCNC(=O)c2ccc(OC)cc2)CC1`, for which the “hERG current change (%, negative = inhibition) at 1uM” value came to 1.78%.
On to `CCCCN1C(=O)/C(=C/c2ccc(N3CCCCCC3)cc2)C(=O)NC1=S`, for which the “hERG current change (%, negative = inhibition) at 1uM” value is recorded as -4.6%.
On to `O=C1NC2(CCCCCC2)Oc2ccccc21`, for which the “hERG current change (%, negative = inhibition) at 1uM” value stood at 9.01%.
On to `COc1cccc(OC)c1OCCNCC1COc2ccccc2O1.Cl` (stereo not drawn), for which the “hERG current change (%, negative = inhibition) at 1uM” value was -5.28%.
Take `C=C(C)C(=O)N1CC2(CC(c3cccc(NC(=O)CC(c4ccccc4)c4ccccc4)c3)=NO2)C[C@H]1C(N)=O` (stereo partly drawn): the “hERG current change (%, negative = inhibition) at 1uM” value is reported as 11.3%.
For the molecule `O=C(Cn1nnc(-c2ccncc2)n1)Nc1ccc2c(c1)CCC2`, the “hERG current change (%, negative = inhibition) at 1uM” value was 9.61%.
Take `Cc1ccc(C)c(S(=O)(=O)N2CCCC2CNC(=O)C(=O)NCc2ccccc2C)c1` (stereo not drawn): the “hERG current change (%, negative = inhibition) at 1uM” value is -1.35%.
Regarding `COc1cc(/C=N/Nc2ccccn2)ccc1OCC(C)C`, the “hERG current change (%, negative = inhibition) at 1uM” value is 12.8%.
For `N#Cc1cccc(NC(=O)Cc2ccccc2)c1`, the “hERG current change (%, negative = inhibition) at 1uM” value is 17.6%.
For `COc1ccc(Cn2c(-c3ccc(OC)cc3)nc3ccccc32)cc1` the value was -0.996%.
For `CCOP(=O)(OCC)/C(C#N)=C/c1ccc(-c2ccc(F)cc2F)o1` the value was 12.1%.
`CCC1(c2ccc(F)cc2)NC(=O)N(CC(=O)N2CC(=O)Nc3ccccc32)C1=O` (stereo not drawn): the “hERG current change (%, negative = inhibition) at 1uM” value is -14.1%.
Take `CS(=O)(=O)c1ccc(N2CCN(C3CC(=O)NC3=O)CC2)cc1` (stereo not drawn): the “hERG current change (%, negative = inhibition) at 1uM” value turned out to be 9.3%.
For `CC(C)NC(C(=O)Nc1cc(Cl)cc(Cl)c1)c1ccccc1` (stereo not drawn), the “hERG current change (%, negative = inhibition) at 1uM” value was determined as 8.81%.
For `C=CCN1C(=O)C2C(C(=O)NCc3ccccc3)C3(C)C=CC2(O3)C1C(=O)NC(C)(C)C` (stereo not drawn) the value was 19.5%; for `COc1ccc(C2c3c(ccc4ccccc34)Oc3ncn4nc(Cc5ccccc5)nc4c32)cc1OC` (stereo not drawn), -3.63%.
Consider `CCCNC(=O)NNC(=O)c1cc(-c2ccc3c(c2)OCO3)nc2ccccc12`, for which the “hERG current change (%, negative = inhibition) at 1uM” value is listed as 6.49%.
For `COc1ccccc1N1CCN(C(=O)c2ccc(N3CCCCS3(=O)=O)cc2)CC1`, the “hERG current change (%, negative = inhibition) at 1uM” value is on record as 11.4%.
For the molecule `C=CCNCC(=O)Nc1sc2c(c1C(=O)Nc1ccc(OC)cc1OC)CCC2`, the “hERG current change (%, negative = inhibition) at 1uM” value is reported as 9.66%.
On to `CC1=CC(=O)c2c(O)ccc(O)c2C1=O`, for which the “hERG current change (%, negative = inhibition) at 1uM” value was -20.8%.
Turning to `COc1cc(/C=C2/SC(=S)N(CCC(=O)Nc3ccc(C(=O)O)cc3)C2=O)cc(OC)c1OC`, the “hERG current change (%, negative = inhibition) at 1uM” value is 11%.
As for `O=C(Cc1cccs1)N/N=C/c1ccc(OCc2ccccc2)cc1`, the figure is 0.531%; as for `O=C(COC(=O)c1cc(=O)[nH]c2ccccc12)Nc1nc(-c2cccc(Br)c2)cs1`, 4.44%.
As for `CCOc1ncccc1C(=O)OCC(=O)Nc1cccc(S(=O)(=O)N2CCCCCC2)c1`, the “hERG current change (%, negative = inhibition) at 1uM” value is reported as -20.9%.
As for `CCc1nnc(NC(=O)c2cc(-c3cccnc3)nc3ccccc23)s1`, the “hERG current change (%, negative = inhibition) at 1uM” value is on record as 13.3%.
For `COc1cc(OC)cc(C(=O)Nc2ncn[nH]2)c1`, the “hERG current change (%, negative = inhibition) at 1uM” value came to 14%.
As for `Cc1cc(C)n(CCCNC(=O)c2ccc(S(=O)(=O)NCc3ccco3)cc2)n1`, the figure is 3.77%.
For the molecule `O=C(CSc1nnc(Cc2ccccc2)o1)Nc1ccccc1`, the “hERG current change (%, negative = inhibition) at 1uM” value is 9.62%.
As to `Cn1ccnc1C(=O)Cc1ccc([N+](=O)[O-])cc1`, the “hERG current change (%, negative = inhibition) at 1uM” value worked out at 6.73%.
Consider `CN(C)Cc1c(O)ccc2occ(C(=O)c3ccc(F)cc3)c12`, for which the “hERG current change (%, negative = inhibition) at 1uM” value is given as -57.5%.
Take `O=C(N/N=C/c1ccc2ncccc2c1)c1cc(-c2cccs2)nc2ccccc12`: the “hERG current change (%, negative = inhibition) at 1uM” value amounted to 13.7%.
As to `O=C(CO/N=C/c1ccccc1Cl)N1CCCc2ccccc21`, the “hERG current change (%, negative = inhibition) at 1uM” value was found to be 7.11%.
As for `O=C(C[C@H]1C(=O)N(C2CCCCC2)C[C@@H]1Cc1ccccc1)Nc1ccccc1`, the figure is -7.77%; as for `Cc1ccnc(NC(=O)Cc2ccc([N+](=O)[O-])cc2)c1`, 4.06%; as for `CCC1CCCCN1S(=O)(=O)c1ccc(NC(=O)c2nc(S(C)(=O)=O)ncc2Cl)cc1` (stereo not drawn), 20.9%.
For `O=C(CN1c2ccccc2Sc2ccccc21)N/N=C/c1ccc(Cl)cc1Cl` the value was 12.9%; for `Cc1ccc(C#N)c(SCCN2CCCCC2)n1`, -1.99%.
In the case of `Cc1cc(S(=O)(=O)NC(C)C)ccc1OCC(=O)N1CCN(Cc2ccc3c(c2)OCO3)CC1`, the “hERG current change (%, negative = inhibition) at 1uM” value is -2.02%.
For `COC(=O)c1sc(C(C)(C)C)cc1CS(=O)(=O)c1ccc(Cl)cc1` the value was 23.7%.
As for `Cc1cc2nc(C3CCN(C(=S)NCCCOC(C)C)CC3)[nH]c2cc1C`, the figure is 9.1%.
As to `CCc1nc(SCC(=O)N2CCC(C)CC2)c2c(=O)n(C)c(=O)n(C)c2n1`, the “hERG current change (%, negative = inhibition) at 1uM” value is 2.17%.
Regarding `Cc1ccc(S(=O)(=O)N2CCC(=O)N(C(COCc3cccc(Cl)c3)Cc3ccccc3)CC2)cc1` (stereo not drawn), the “hERG current change (%, negative = inhibition) at 1uM” value came to 6.04%.
On to `Cn1c(SCc2ccccc2F)nnc1-c1ccccn1`, for which the “hERG current change (%, negative = inhibition) at 1uM” value was 11.3%.
As for `COc1cc(C2=NOC(C(=O)N3CCN(c4ccc(F)cc4)CC3)C2)cc(OC)c1OC` (stereo not drawn), the figure is -7.57%.
Consider `CCC1CCCCN1CCCNC(=O)CN1C(=O)COc2ccc(S(=O)(=O)N3CCC(C)CC3)cc21` (stereo not drawn), for which the “hERG current change (%, negative = inhibition) at 1uM” value is listed as -13.8%.
As for `CC(Cn1cncn1)NC(=O)c1cc(COc2cccc(C(F)(F)F)c2)on1` (stereo not drawn), the figure is 14.3%.
As to `Cc1c(/N=C(\[O-])Nc2ccc(Br)cc2)sn[n+]1C`, the “hERG current change (%, negative = inhibition) at 1uM” value is 1.76%.
